# Results taken from a collection of fitness landscapes (doi:10.1126/science.1257360).
# The list shows a part of the results.
# B1: PhoQ; a variant is named by its letters at X, in order, P23837 (parent)
# chain: MKKLLRLFFPLSLRVRFLLATAAVVLVLSLAYGMVALIGYSVSFDKTTFRLLRGESNLFYTLAKWENNKLHVELPENIDKQSPTMTLIYDENGQLLWAQRDVPWLMKMIQPDWLKSNGFHEIEADVNDTSLLLSGDHSIQQQLQEVREDDDDAEMTHSVAVNVYPATSRMPKLTIVVVDTIPVELKSSYMVWSWFIYVLSANLLLVIPLLWVAAWWSLRPIEALAKEVRELEEHNRELLNPATTRELTSLVRNLNRLLKSERERYDKYRTTLTDLTHSLKTPLXXLQXXLRSLRSEKMSVSDAEPVMLEQISRISQQIGYYLHRASMRGGTLLSRELHPVAPLLDNLTSALNKVYQRKGVNISLDISPEISFVGEQNDFVEVMGNVLDNACKYCLEFVEISARQTDEHLYIVVEDDGPGIPLSKREVIFDRGQRVDTLRPGQGVGLAVAREITEQYEGKIVAGESMLGGARMEVIFGRQHSAPKDE
# Variants of: B1
# Assay: enrichment ratio after two sorts for PhoP signalling (ratio (wild type AVST 3.29)); higher = more functional
# Conditions: with PhoP (E. coli)
row,Variant,enrichment ratio
1,HKMY,≤ 0.25
2,IPWR,≤ 0.25
3,FCFP,≤ 0.25
4,ITQG,≤ 0.25
5,DTNG,≤ 0.25
6,SAWS,≤ 0.25
7,IAWH,≤ 0.25
8,RPRW,≤ 0.25
9,HRFQ,≤ 0.25
10,NNRR,≤ 0.25
11,KPLW,≤ 0.25
12,HNWI,≤ 0.25
13,KTRR,≤ 0.25
14,LRFP,≤ 0.25
15,RTQY,≤ 0.25
16,ILCI,≤ 0.25
17,SKMY,1.95
18,PSWC,≤ 0.25
19,VTNS,≤ 0.25
20,MFSK,≤ 0.25
21,LDIP,≤ 0.25
22,WVHR,≤ 0.25
23,TTPC,≤ 0.25
24,NMYG,≤ 0.25
25,PEMS,≤ 0.25

row,Variant,enrichment ratio
1,YYEL,≤ 0.25
2,NLIV,≤ 0.25
3,WDHE,≤ 0.25
4,PLNE,≤ 0.25
5,GDDH,≤ 0.25
6,FRFV,≤ 0.25
7,NKLH,≤ 0.25
8,PFQW,≤ 0.25
9,IIRM,≤ 0.25
10,GYQW,≤ 0.25
11,SWCP,≤ 0.25
12,VCNM,≤ 0.25
13,YWLR,≤ 0.25
14,GRLT,≤ 0.25
15,YNQQ,≤ 0.25
16,VVFR,≤ 0.25
17,QEGW,≤ 0.25
18,NSSV,≤ 0.25
19,FDPI,≤ 0.25
20,EDCS,≤ 0.25
21,EYWS,≤ 0.25
22,LCAT,≤ 0.25
23,AHYQ,≤ 0.25
24,HGQA,≤ 0.25
25,SHEG,≤ 0.25

row,Variant,enrichment ratio
1,YASI,≤ 0.25
2,LAWQ,≤ 0.25
3,CFST,≤ 0.25
4,YGPR,≤ 0.25
5,EHHI,≤ 0.25
6,TICG,6.77
7,HWSP,≤ 0.25
8,WQDR,≤ 0.25
9,DYIF,≤ 0.25
10,VTQF,1.56
11,LQYN,≤ 0.25
12,EGEH,≤ 0.25
13,LGYI,3.07
14,DPLH,≤ 0.25
15,TFNT,1.87
16,SLHR,≤ 0.25
17,DPNA,≤ 0.25
18,GHWQ,≤ 0.25
19,FCMT,≤ 0.25
20,NPDT,≤ 0.25
21,IQFD,≤ 0.25
22,GLDD,≤ 0.25
23,IEEV,≤ 0.25
24,VVAM,≤ 0.25
25,KIHA,≤ 0.25

row,Variant,enrichment ratio
1,PENI,≤ 0.25
2,KFQQ,≤ 0.25
3,ISPV,≤ 0.25
4,LCDI,≤ 0.25
5,QDYE,≤ 0.25
6,AQCA,32.5
7,QPSC,≤ 0.25
8,LWIG,≤ 0.25
9,MTGD,≤ 0.25
10,MEFI,5.13
11,FHRI,≤ 0.25
12,HYAE,≤ 0.25
13,HLYT,≤ 0.25
14,ALHK,≤ 0.25
15,TVSC,6.5
16,MVFG,≤ 0.25
17,ESVD,≤ 0.25
18,QNIL,≤ 0.25
19,TMDP,≤ 0.25
20,IKMW,≤ 0.25
21,MTYY,0.96
22,RVNK,≤ 0.25
23,EKPI,≤ 0.25
